Test results published in publication PMC7819943, “Rice protein-binding microarrays: a tool to detect cis-acting elements near promoter regions in rice”.
The list shows a part of the results.

Molecular target: T1, OsWOX13 (Oryza sativa, UniProt Q5QMM3 1-267)
T1 sequence: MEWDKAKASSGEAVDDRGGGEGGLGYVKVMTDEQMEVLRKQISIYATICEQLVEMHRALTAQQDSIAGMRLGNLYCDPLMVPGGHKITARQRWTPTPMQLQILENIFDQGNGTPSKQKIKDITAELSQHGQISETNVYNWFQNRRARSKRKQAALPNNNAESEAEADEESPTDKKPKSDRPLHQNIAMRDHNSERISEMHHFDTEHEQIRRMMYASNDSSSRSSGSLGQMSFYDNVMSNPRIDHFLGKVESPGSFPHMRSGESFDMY
Assay: protein-binding microarray (RPBM); PBS, 2% BSA, 51.3 ng/ul salmon testes DNA, 50 uM zinc acetate, 200 nM TF, 25 C, 1 h; high values mean tight binding
Details: protein: recombinant; tags: N-terminal polyhistidine and DsRed monomer fusion (pET32a); label: CyDye5-dUTP incorporated in the synthesized complementary strand; 3' TTTTT single-stranded linker to array surface; dsDNA, one strand shown
Method in brief: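 Per-feature fluorescence intensity (arbitrary units), read on an Axon 4000B scanner, is the binding signal. Transcription factors carrying an N-terminal polyhistidine tag and DsRed fusion were expressed in E. coli BL21-CodonPlus and purified on Ni–NTA. A custom Agilent array, made double-stranded by primer extension with Cy5-dUTP and blocked with 2% BSA, was incubated with 200 nM protein in PBS, 2% BSA, salmon testes DNA and 50 µM zinc acetate at 25 °C for 1 h and then washed.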

| Sequence | binding signal |
| --- | --- |
| GCTCACTAATTTTATTCTGTATTCTTTGAAGGGTGTCAGCCGGAGTCACCTAGTGCAG | 9160 fluorescence intensity (a.u.) |
| ACCGAGTAAATTGTTTACTATCGACAGTTACACGTTACCACGGAGTCACCTAGTGCAG | 6300 fluorescence intensity (a.u.) |
| TTTCTAATTACTATACTTTACTACTCGAGTTGGTTGTGCACGGAGTCACCTAGTGCAG | 19400 fluorescence intensity (a.u.) |
| CCCCTGATGAAGCAAATCAGATTGATTGGTCCACAACAAGCGGAGTCACCTAGTGCAG | 52100 fluorescence intensity (a.u.) |
| TGAAACTGATTTTAAGGGCATCCGTGAATCGATTCTTCAGCGGAGTCACCTAGTGCAG | 9080 fluorescence intensity (a.u.) |
| GACCACTAATTAAGTTACTGGCTAGTAGCTTAGCTACTGACGGAGTCACCTAGTGCAG | 13200 fluorescence intensity (a.u.) |
| ATAATAGTTTAGATTAAACCAATAAACAGATAAAATCCATCGGAGTCACCTAGTGCAG | 4340 fluorescence intensity (a.u.) |
| CTTAAATAGGAAATGTTGCCGGTGACTGTAACATATCGATCGGAGTCACCTAGTGCAG | 7330 fluorescence intensity (a.u.) |
| AATGATTTATAGGTAAAACTTTTGCACATGTATTTTAGCGCGGAGTCACCTAGTGCAG | 30100 fluorescence intensity (a.u.) |
| ATGATTGGTTGTGAAAAGAATATAGGTGAAGTTTATATTTCGGAGTCACCTAGTGCAG | 37700 fluorescence intensity (a.u.) |
| TACGTAATATTTAAATAATCAATTATTTGATTATATATATCGGAGTCACCTAGTGCAG | 15200 fluorescence intensity (a.u.) |
| GCTAAAATTAGAAGTTTAATTGAAATTGAAACAATGTGACCGGAGTCACCTAGTGCAG | 51200 fluorescence intensity (a.u.) |
| GGTCTGATTGCAGAGAAAGAGGAGCTAATGAACAGTATGACGGAGTCACCTAGTGCAG | 14700 fluorescence intensity (a.u.) |
| TTGATAATTTGTTTTAGGTACATGCTCTTTAGTTTGTACTCGGAGTCACCTAGTGCAG | 32400 fluorescence intensity (a.u.) |
| CCGCGTTGAAAGTCTTCGCAGGCGGCCACCTTCTCCTCGCCGGAGTCACCTAGTGCAG | 4140 fluorescence intensity (a.u.) |
| CAAATAGCCCTGATTTGTCGTCAAAGATTAGGGACACCAGCGGAGTCACCTAGTGCAG | 8180 fluorescence intensity (a.u.) |
| GTAATTTTGGTATGATTTAATAACTAAATTTGCACCTCAACGGAGTCACCTAGTGCAG | 25400 fluorescence intensity (a.u.) |
| GGACTAAACTAAAATGATTGGAATCCAAGAAGCTATCTTACGGAGTCACCTAGTGCAG | 12200 fluorescence intensity (a.u.) |
| CTAATAATTCGGCAATCATGCACTAAACAGTGCATTAGTACGGAGTCACCTAGTGCAG | 9420 fluorescence intensity (a.u.) |
| GGTTGAAATTAGAACGATGTGATAGAAAAGTTGAAAGTTTCGGAGTCACCTAGTGCAG | 7220 fluorescence intensity (a.u.) |
| CTGTGAATTGATTCATCTCTCACACATGGTTCTCCACTATCGGAGTCACCTAGTGCAG | 9680 fluorescence intensity (a.u.) |

| Sequence | binding signal |
| --- | --- |
| TTTGATGTGATAGAAAAGTTGGAAGTTTAAAGAAATATTTCGGAGTCACCTAGTGCAG | 13100 fluorescence intensity (a.u.) |
| CTTGGATTGCCATAACACGACCGCGAAAGACCAAAATCATCGGAGTCACCTAGTGCAG | 3670 fluorescence intensity (a.u.) |
| AGCAATTGAAGTTAACTCTGGTGCTTCTGTTGATGTCGGTCGGAGTCACCTAGTGCAG | 3690 fluorescence intensity (a.u.) |
| TTAATAGATGACGCCGTTAATCTTTAATATCACGTTTGACCGGAGTCACCTAGTGCAG | 7380 fluorescence intensity (a.u.) |
| AAAGGGATGAGATTGAAGCAATTCCCGTGACTAGAAAACGCGGAGTCACCTAGTGCAG | 3320 fluorescence intensity (a.u.) |
| TAAAATTATATATTAATTGATATTTCTATATATATTGTAACGGAGTCACCTAGTGCAG | 49700 fluorescence intensity (a.u.) |
| TGTGATAGGGACTTGAAAAGTTTTAGTCCCACGCCTTATCCGGAGTCACCTAGTGCAG | 4900 fluorescence intensity (a.u.) |
| CAGACTTAGTTAATTATTGGACGGCAATGACTTATGCAATCGGAGTCACCTAGTGCAG | 10600 fluorescence intensity (a.u.) |
| GCAAGAGATTGGAGGGGAGAATGAAATCTCCATTTTCGTTCGGAGTCACCTAGTGCAG | 6550 fluorescence intensity (a.u.) |
| CCTAATTAATCCGTCAGTAGCAAATATTTACTGTAGCACCCGGAGTCACCTAGTGCAG | 17600 fluorescence intensity (a.u.) |
| GTTTCTTATCAGTCCTGATTATCATTAACCCACTGAATAACGGAGTCACCTAGTGCAG | 4280 fluorescence intensity (a.u.) |
| TGAGAATGATTGCAACCTGGCTTCACCAGACACCAAGCTGCGGAGTCACCTAGTGCAG | 19400 fluorescence intensity (a.u.) |
| CACCGTCCCATTACAGCATGATTAACTAAAGATTCTTGTTCGGAGTCACCTAGTGCAG | 8860 fluorescence intensity (a.u.) |
| TGTCTTCAATTAGCATCTACACTAATCATCTCAATTTCTCCGGAGTCACCTAGTGCAG | 12300 fluorescence intensity (a.u.) |
| GTCGAATTATTTAGCCGATTGGATCACCGGTTTCAAAGGCCGGAGTCACCTAGTGCAG | 3360 fluorescence intensity (a.u.) |
| CTCTCGATTGATTACCTAGTACTACTGCAATTCACATTGTCGGAGTCACCTAGTGCAG | 52200 fluorescence intensity (a.u.) |
| GTAGTCTAATAACAAAATAAATTACAGATTCCGTCAGGAACGGAGTCACCTAGTGCAG | 4660 fluorescence intensity (a.u.) |
| CCTGCTAAAGGGAATCAATCATTTCATCCATTCAACACTGCGGAGTCACCTAGTGCAG | 4940 fluorescence intensity (a.u.) |
| TGCTAATTATAATCCATACTAATAATCAAACGACCTCCCCCGGAGTCACCTAGTGCAG | 48000 fluorescence intensity (a.u.) |
| CCACCGTGATTTTCGCTCCCATCACCGCGCGAGGACTCCGCGGAGTCACCTAGTGCAG | 3320 fluorescence intensity (a.u.) |
| CATTTGACTGAACAAGAACAGTAGGATCAATCTTTGTGCACGGAGTCACCTAGTGCAG | 16900 fluorescence intensity (a.u.) |
